The results in this text go back to PubChem BioAssay AID294 (DTP/NCI, 2004).

The test concerns MX-1 breast xenograft, nude mice, tumor weight change. Description: NCI In Vivo Anticancer Drug Screen. Data for tumor model Human Mammary Carcinoma MX-1 Xenograft (subcutaneous) in NU/NU Swiss (nude) mice. As to conditions: endpoint: optimum tumor weight change, schedule: Q04DX003 (ip), higher = larger tumour. Here is the method: The antitumor activity of compounds was measured in mice bearing transplantable tumors. Survival or tumor size were measured and the results are expressed as the measurement made in the treated group (T) divided by the measurement made in the vehicle treated control group (C). The tumor model used in this assay is Human Mammary Carcinoma MX-1 Xenograft (subcutaneous) in NU/NU Swiss (nude) mice

Where [1] appears, read: dose: 15.0 mg/kg/injection, vehicle: saline.
Where [2] appears, read: dose: 1.5 mg/kg/injection, vehicle: saline.

The source holds more than one record for some entries. This list holds those alone. An entry can have further records. Values that stand side by side differ, and nothing given here explains why; they may come from other doses, times, organisms or constructs than stated.

Take `N[C@@H](Cc1ccc(N(CCCl)CCCl)cc1)C(=O)O`: the T/C by setting is: (dose: 2.0 mg/kg/injection, vehicle: suspension in saline) 37 % of control and 97 % of control; (dose: 8.0 mg/kg/injection, vehicle: suspension in saline) -76 % of control and 4 % of control.

Regarding `Cc1c(N)nc(C(CC(N)=O)NCC(N)C(N)=O)nc1C(=O)NC(C(=O)NC(C)C(O)C(C)C(=O)NC(C(=O)NCCc1nc(-c2nc(C(=O)NCCCNC(C)c3ccccc3)cs2)cs1)C(C)O)C(OC1OC(CO)C(O)C(O)C1OC1OC(CO)C(O)C(OC(N)=O)C1O)c1cnc[nH]1` (stereo unspecified), the T/C under setting [1] is given as 32 % of control, 34 % of control, 62 % of control.

For the compound `Cc1c(N)nc([C@H](CC(N)=O)NC[C@H](N)C(N)=O)nc1C(=O)N[C@H](C(=O)N[C@H](C)[C@@H](O)CC(=O)N[C@H](C(=O)NC(O[C@@H]1O[C@@H](C)[C@@H](N)[C@@H](O)[C@H]1O)C(O)c1nc(-c2nc(C(=O)NCCCCN)cs2)cs1)[C@@H](C)O)[C@@H](O[C@@H]1O[C@@H](CO)[C@@H](O)[C@H](O)[C@@H]1O[C@H]1O[C@H](CO)[C@@H](O)[C@H](OC(N)=O)[C@@H]1O)c1c[nH]cn1` (stereo partly specified), the T/C (dose: 16.0 mg/kg/injection, vehicle: saline) was 26 % of control, 38 % of control, 53 % of control.

As to `COC1C(O)CC(OC2CC(OC3CC(O[C@@H]4C(=O)c5c(cc6cc(OC7CC(OC8CC(O)C(O)C(C)O8)C(O)C(C)O7)c(C)c(O)c6c5O)C[C@H]4[C@H](OC)C(=O)[C@@H](O)[C@@H](C)O)OC(C)C3O)OC(C)C2O)OC1C` (stereo partly specified), the T/C under setting [2] was 11 % of control and 87 % of control.

For `CCOC(=O)C1C2OC(=O)C(C(=O)C2CN(CCCl)CCCl)C1C1CC=C(CC2=CCC(C3C4C(=O)OC(C(CN(CCCl)CCCl)C4=O)C3C(=O)OCC)CC2)CC1` (stereo unspecified), the T/C (dose: 50.0 mg/kg/injection, vehicle: Klucel (hydroxypropylcellulose) (HPC)) is on record as 43 % of control, 75 % of control, 165 % of control.

In the case of `CSc1cc(=O)n2c3ccccc3c3ccnc1c32`, the T/C (dose: 40.0 mg/kg/injection, vehicle: saline with Tween-80) is given as 56 % of control, 85 % of control, 96 % of control.

On to `C[n+]1c(-c2cccc3ccccc23)c2cc(N)ccc2c2ccccc21`, for which the T/C under setting [2] was 76 % of control and 118 % of control.

As for `CCCCNCCCNCCCNC(=O)c1csc(-c2csc(CCNC(=O)C(NC(=O)C(C)C(O)C(C)NC(=O)C(NC(=O)c3nc(C(CC(N)=O)NCC(N)C(N)=O)nc(N)c3C)C(OC3OC(CO)C(O)C(O)C3OC3OC(CO)C(O)C(OC(N)=O)C3O)c3cnc[nH]3)C(C)O)n2)n1` (stereo unspecified), the T/C under setting [1] was 14 % of control and 43 % of control.

In the case of `COc1cccc2c1C(=O)c1c(O)c3c(c(O)c1C2=O)C[C@@](O)(C(=O)CO)C[C@@H]3OC1CC(N)C(O)C(C)O1` (stereo partly specified), the T/C runs as follows: (dose: 2.0 mg/kg/injection, vehicle: water) 69 % of control, 72 % of control, 104 % of control; (dose: 4.0 mg/kg/injection, vehicle: water) 39 % of control, 42 % of control, 68 % of control.
